The record followed here is US20200148733A1 (Pieris, published 2020).

The target in test [1] is T1, human IL-6 (human, UniProt P05231 30-212).
T1 construct: Negative control ligand; also called hIL-6
The experiment in a line: affinity ELISA, ligand coated at 5 µg/mL, mutein titrated. How it is done:
(§1) After washing, 20 μl fluorogenic HRP substrate (Quantablue, Pierce) was added to each well, and the reaction allowed to proceed for 30 minutes. The fluorescence intensity of every well on the plate was read using a Genios Plus Microplate reader (Tecan).

The target in test [2] is T2, human IL-17A (human, UniProt Q16552 24-155).
T2 construct: also called hIL-17A; IL-17 A/A
Kind of test: SPR in analogy to Example 1 (IL-17A on CM5 chip, mutein in solution).

The target in test [3] is T2, human IL-17A. Kind of test: affinity ELISA: ligand coated at 5 µg/mL, mutein titrated, HRP anti-lipocalin antibody detection. How it is done: as §1
Test [4] addresses T3, human IL-17 A/F heterodimer (human, UniProt Q16552 24-155; Q96PD4 31-163).
T3 construct: Heterodimer of IL-17A and IL-17F; also called hIL-17 A/F; hIL-17 AF
The test is described as above. How it is done:
as §1

The target in another test is T4, cynomolgus monkey IL-17A (cynomolgus monkey, UniProt A0A2K5TTB0 24-155).
T4 construct: also called cIL-17A; cIL-17-A
Described as above. The protocol:
as §1

Test [5] deals with T2, human IL-17A. Kind of test: SPR in analogy to Example 1, hIL-17A immobilized, mutein injected, fit 1:1 Binding.
Test [6] concerns the target T5, human IL-17F (human, UniProt Q96PD4 31-163).
T5 construct: also called hIL-17F; hIL-17-F
T5 sequence (looked up): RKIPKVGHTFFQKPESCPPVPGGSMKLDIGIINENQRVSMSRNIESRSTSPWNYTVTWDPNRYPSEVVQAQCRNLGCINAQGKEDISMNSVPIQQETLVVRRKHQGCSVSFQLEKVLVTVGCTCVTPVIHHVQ
The experiment in a line: Affinity ELISA: ligand coated at 5 ug/mL, mutein titrated, HRP-conjugated anti-lipocalin antibody, fluorescence. How it is done:
as §1

For test [7], the target named is T2, human IL-17A. The experiment in a line: competition ELISA (fluorescence): 0.2 nM hIL-17A pre-incubated with varied mutein, free hIL-17A captured on hIL-17RA-Fc (competitor). How it is done: After washing, 20 μl fluorogenic HRP substrate (Quantablue, Pierce) was added to each well, and the reaction allowed to proceed for 30 minutes.
Test [8] addresses T2, human IL-17A. The experiment in a line: cell-based or functional assay.
Test [9] concerns the target T2, human IL-17A. The experiment in a line: cell-based or functional assay. This is another data set of the same source.
Test [10] concerns the target T5, human IL-17F. The experiment in a line: solution competition ELISA, 0.5 nM SEQ ID NO: 5, plate with biotinylated hIL-17A. The protocol:
(§2) In the following detailed experimental protocol, incubation and washing steps were performed as described above in the competition ELISA protocol. A 384-well plate suitable for fluorescence measurements (Greiner FLUOTRAC™ 600, black flat bottom, high-binding) was coated with 20 μl of Neutravidin at a concentration of 5 μg/ml in PBS over night at 4° C. After washing, the Neutravidin-coated wells were blocked with 100 μl blocking buffer (PBS-T/BSA) for 1h at room temperature.

The target of test [11] is T6, mouse IL-17A (mouse, UniProt Q62386 26-158, limits assumed).
T6 construct: also called mIL-17A
T6 sequence (looked up): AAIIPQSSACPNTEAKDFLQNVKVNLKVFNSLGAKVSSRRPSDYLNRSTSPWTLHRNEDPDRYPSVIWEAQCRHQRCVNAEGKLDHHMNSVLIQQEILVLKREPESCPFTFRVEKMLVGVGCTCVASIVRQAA
The description is as above. The protocol: as §2

For test [12], the target named is T1, human IL-6. The test is described as above. The protocol:
as §2

The target of test [13] is T2, human IL-17A. Kind of test: Surface Plasmon Resonance, legend of FIG. 6A (rounded value of the measurement of the example). How it is done:
(§3) Residual activated groups were quenched with ethanolamine.
(§4) The binding assay was carried out with a contact time of 300 s, dissociation time of 1200 s and applying a flow rate of 30 μL/min. All measurements were performed at 25° C. […] Prior to the protein measurements three startup cycles were performed for conditioning purposes. Data were evaluated with Biacore T200 Evaluation software (V 1.0). Double referencing was used. The 1:1 Binding model was used to fit the raw data.

Test [14] has as its target T2, human IL-17A. Kind of test: SPR (Biacore T200), IL-17A amine-coupled to CM5 chip, mutein in solution, 25 C, 1:1 binding model. The protocol:
as §3, §4

The target of test [15] is T2, human IL-17A. The experiment in a line: SPR (Biacore T200), hIL-17A immobilized on CM5 chip, mutein injected, fit 1:1 Binding. How it is done:
as §3, §4

Test [16] deals with T2, human IL-17A. Kind of test: competition ELISA (ECL): 0.01 nM biotinylated hIL-17A pre-incubated with varied mutein, free hIL-17A captured on coated soluble hIL-17RA (competitor).
For test [17], the target named is T2, human IL-17A. Kind of test: affinity ELISA (FIG. 9), ligand coated, mutein titrated. The protocol: as §1
Test [18] addresses T3, human IL-17 A/F heterodimer. The test is described as above. The protocol: as §1
Test [19] concerns the target T2, human IL-17A. Kind of test: SPR in analogy to Example 1, hIL-17A immobilized, mutein injected, fit 1:1 Binding. This is another data set of the same source.
The target of test [20] is T6, mouse IL-17A. The experiment in a line: Affinity ELISA: ligand coated at 5 ug/mL, mutein titrated, HRP-conjugated anti-lipocalin antibody, fluorescence. How it is done: as §1
Test [21] addresses T2, human IL-17A. Kind of test: SPR in analogy to Example 1, hIL-17A immobilized, mutein injected, fit 1:1 Binding. The source holds these as a separate data set.
A further test addresses T7, human IL-23 (human, UniProt Q9NPF7 20-189; P29460 23-328).
T7 sequence (looked up) 1: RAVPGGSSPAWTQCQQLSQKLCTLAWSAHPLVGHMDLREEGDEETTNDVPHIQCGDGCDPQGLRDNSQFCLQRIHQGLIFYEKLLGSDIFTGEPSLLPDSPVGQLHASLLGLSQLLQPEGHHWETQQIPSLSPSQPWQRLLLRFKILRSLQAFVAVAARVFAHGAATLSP
T7 sequence (looked up) 2: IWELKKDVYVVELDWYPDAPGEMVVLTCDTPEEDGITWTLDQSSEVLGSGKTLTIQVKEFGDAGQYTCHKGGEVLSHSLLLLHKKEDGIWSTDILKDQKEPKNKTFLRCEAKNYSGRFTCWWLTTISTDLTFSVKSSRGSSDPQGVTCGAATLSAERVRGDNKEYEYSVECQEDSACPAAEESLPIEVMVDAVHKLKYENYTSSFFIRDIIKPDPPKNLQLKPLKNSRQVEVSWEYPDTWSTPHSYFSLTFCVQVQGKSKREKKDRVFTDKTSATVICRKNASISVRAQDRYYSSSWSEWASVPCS
The experiment in a line: cell-based or functional assay.

For test [22], the target named is T2, human IL-17A. The experiment in a line: sandwich binding ELISA: hIL-17A coated, ABD fusion titrated, detection with biotinylated hIL-23; filing says the EC50 does not reflect binding affinity.

Numbering of substitutions follows the chain as printed. Values joined by “and” are separate entries in the source; they are usually repeats but may differ in a detail not shown here. Equal values may be shown once.

cynomolgus monkey IL-17A, sequence (A0A2K5TTB0 entry or part of it): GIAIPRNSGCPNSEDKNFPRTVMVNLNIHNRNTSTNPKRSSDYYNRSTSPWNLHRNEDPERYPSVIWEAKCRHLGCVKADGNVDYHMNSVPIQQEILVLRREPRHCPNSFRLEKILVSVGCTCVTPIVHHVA
T3 sequence (Q16552 24-155 limits assumed, one chain of several): as the sequence (A0A2K5TTB0 entry or part of it) above, with A3T, S8P, S34N, V77I, K78N, R104P counted along it
T2 sequence (Q16552 24-155 limits assumed): as the sequence (A0A2K5TTB0 entry or part of it) above, with A3T, S8P, S34N, V77I, K78N, R104P counted along it
T1 sequence (P05231 30-212 limits assumed): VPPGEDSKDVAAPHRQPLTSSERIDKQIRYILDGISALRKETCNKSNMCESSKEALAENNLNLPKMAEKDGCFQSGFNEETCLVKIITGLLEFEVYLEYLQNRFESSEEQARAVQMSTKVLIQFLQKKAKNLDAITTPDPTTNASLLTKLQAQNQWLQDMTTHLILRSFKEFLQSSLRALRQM

B1: lipocalin mutein SEQ ID NO: 14 (designed binder)
chain: ASDEEIQDVSGTWYLKAMTVDYGCNHPSIWSVTPMTLTTLEGGNLEAKVTMYWEGSRQEDKAVLEKTDEPGKYTADGGKHVAYIIRSHVKDHYIFYSEGICEGAPVPGVWLVGRDPKNNLEALEDFEKAAGARGLSTESILIPRQSETSSPG
notes: Human tear lipocalin mutein specific for IL-17A
As to B1, the binding result in the test with human IL-6 [1] is on record as “no binding (tested: mutein up to 1000 nM)”; with human IL-17F [6] it was “binds”. The Kd with human IL-17A [2] amounted to 600 nM. In addition, the koff with human IL-17A [2] turned out to be 0.00065 s⁻¹; in the test with human IL-17A [5], 0.000645 s⁻¹. This molecule had a kon in the test with human IL-17A [2] of 1100 M⁻¹ s⁻¹. For the same molecule, the results for the “KD,app” value (in the test with human IL-17A [3]; in test [4]; with cynomolgus monkey IL-17A) were 4 nM, 12.5 nM and 35.1 nM, respectively. In addition, the IC50 in the test with human IL-17A [7] turned out to be 33 nM.

B2: lipocalin mutein SEQ ID NO: 5 (designed binder)
chain: ASDEEIQDVSGTWYLKAMTVDFWCSGIHEESVTPMTLTTLEGGNLEAKVTMDIEGFLQEFKAVLEKTDEPGKYTADGGKHVAYIIRSHVKDHYIFYSEGDCPGPVPGVWLVGRDPKNNLEALEDFEKAAGARGLSTESILIPRQSETSSPG
notes: Human tear lipocalin (Tlc) mutein specific for IL-17A; also called Tlc mutein
In the case of B2, the “IC50, hIL-17A-induced secretion of G-CSF in U87-MG cells” value with human IL-17A [8] is 1 nM and 1.2 nM and 2 nM. Further, the “EC50 [nM] AVERAGE, hIL-17A-induced secretion of G-CSF in U87-MG cells” value with human IL-17A [9] was 0.7 nM. Besides, the “EC50 [nM] Exp 1, hIL-17A-induced secretion of G-CSF in U87-MG cells” value with human IL-17A [9] came out at 0.7 nM. Further, the “EC50 [nM] Exp 2, hIL-17A-induced secretion of G-CSF in U87-MG cells” value with human IL-17A [9] is 0.7 nM. The binding result in the test with human IL-17F [10], in the test with mouse IL-17A [11] and with human IL-6 [12] was “no binding (tested: ligand up to 1000 nM)” each time. The Kd with human IL-17A [13] was 1 nM. In addition, the koff was 0.00032 s⁻¹ with human IL-17A [14] and 0.000317 s⁻¹ with human IL-17A [15]. Further, the kon came to 310000 M⁻¹ s⁻¹ in the test with human IL-17A [14] and 311000 M⁻¹ s⁻¹ in the test with human IL-17A [15]. In addition, the IC50 with human IL-17A [16] came to 0.05 nM.

B3: lipocalin mutein SEQ ID NO: 3 (designed binder)
chain: B2 chain with E29D, E54A, F60V
notes: as for B1
With B3, the “KD,app” value in the test with human IL-17A [17] was approximately 0.8 nM; in [18], approximately 0.8 nM; with human IL-17A [3], 0.7 nM; in test [4] it was 0.8 nM; with cynomolgus monkey IL-17A, 0.8 nM. For the same molecule, the binding result with human IL-6 [1] is reported as “no binding (tested: mutein up to 1000 nM)”; with human IL-17F [6], “binds”; in the test with mouse IL-17A [20] it was “no binding (tested: 1000 nM)”. This molecule yielded a Kd in the test with human IL-17A [2] of 8.7 nM. The koff amounted to 0.00044 s⁻¹ with human IL-17A [2] and 0.000436 s⁻¹ in the test with human IL-17A [19]. The kon stood at 50000 M⁻¹ s⁻¹ with human IL-17A [2] and 50100 M⁻¹ s⁻¹ in the test with human IL-17A [19]. Also, the IC50 with human IL-17A [7] was 0.15 nM.

B4: lipocalin mutein SEQ ID NO: 4 (designed binder)
chain: ASDEEIQDVSGTWYLKAMTVDFWCSGIHEESVTPMTLTTLEGGNLEAKVTMDIRGFLQEFKAVLEKTDEPGKYTADGGKHVAYIIRSHVKDHYIFYSEGDCPDSPVPGVWLVGRDPKNNLEALEDFEKAAGARGLSTESILIPRQSETSSPG
notes: as for B1
Consider B4, for which the “KD,app” value was approximately 2 nM with human IL-17A [17]; approximately 2 nM in test [18]; 2.4 nM with human IL-17A [3]; 1.8 nM in [4]; 2.6 nM in the test with cynomolgus monkey IL-17A. Moreover, the figures for the binding result with human IL-6 [1], in the test with human IL-17F [6] and with mouse IL-17A [20] were “no binding (tested: mutein up to 1000 nM)”, “binds” and “no binding (tested: 1000 nM)”, respectively. In the test with human IL-17A [2], this molecule had a Kd of 1.6 nM. Besides, the koff with human IL-17A [21] worked out at 0.000625 s⁻¹. The kon in the test with human IL-17A [21] came out at 394000 M⁻¹ s⁻¹. The IC50 with human IL-17A [7] is 0.2 nM.

B5: ABD fusion (SEQ ID NO: 41) (designed binder)
chain: ASDEEIQDVSGTWYLKAMTVDFWCSGIHEESVTPMTLTTLEGGNLEAKVTMDIEGFLQEFKAVLEKTDEPGKYTADGGKHVAYIIRSHVKDHYIFYSEGDCPGPVPGVWLVGRDPKNNLEALEDFEKAAGARGLSTESILIPRQSETSSPGSGAGGGSGGGGSQDSTSDLIPAPPLSKVPLQQNFQDNQFHGKWYVVGEAGNLLLREDKDPRKMTATIYELKEDKSYNVTRVEFGVKTYKYQIGTFVPGSQPGEFTLGGIKSMPGMTSFLVRVVSTNYNQHAMVFFKYVYQNREYFEITLYGRTKELTSELKENFIRFSKSLGLPENHIVFPVPIDQAIDGSAGAVDANSLAEAKVLANRELDKYGVSDYYKNLINNAKTVEGVKALIDEILAALP
Turning to B5, in the test with human IL-17A [8], the “IC50 (repeat experiment), hIL-17A-induced secretion of G-CSF in U87-MG cells” value is 1.1 nM and the “IC50, hIL-17A-induced secretion of G-CSF in U87-MG cells” value was found to be 1.2 nM. In the test with human IL-23, the “IC50 (experiment of FIG. 19), hIL-23-induced proliferation of Ba/F3 cells expressing hIL-23R and hIL-12Rβ1” value amounted to 0.42 nM; the “IC50 (three independent experiments), hIL-23-induced proliferation of Ba/F3 cells expressing hIL-23R and hIL-12Rβ1” value was determined as 0.38 nM. This molecule displayed an EC50 with human IL-17A [22] of 4 nM.
